About 120 (0.25%) of roughly 48,000 compounds were called active. Roughly 4% stayed inconclusive and do not appear here. The call rests on the fitted dose curve; in most records, active means well fitted activation curve with a large enough effect; inconclusive means small, poorly fitted or top-dose-only effect, or another doubt; inactive means no such curve, though single readings can be large or run the other way. The list shows a part of the results.
Test: Primary qHTS for Identification of Small Molecule Activators of Huntingtin-Antisense Promoter Activity; further: nearly all actives have a fitted effect of over 55% in size
Details: HEK293 HTT-AS promoter firefly luciferase reporter, 24 h; series mostly up to 57.5 µM; activity change, positive = activation: at the top concentration
Procedure, shortened: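 HEK293 Fluc reporter, 2,500 cells/well, 24 h pre-culture; cpds up to 57.5 uM final, 24 h 37 degrees C; Dual-Glo, 10 min RT; normalized vehicle = 0%, zero RLU = -100%.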

Activity change, positive = activation, inactive:
Cc1ccc(Cc2nc3ccccc3nc2SCC(=O)N2CCc3ccccc32)cc1 -3.59%
CCOc1ccccc1NC(=O)c1ccc2oc(=O)c(S(=O)(=O)c3ccc(F)cc3)cc2c1 -72.5%
CN(C(=O)CSc1nc2ccc(NC(=O)c3ccc(F)cc3)cc2s1)c1ccccc1 -53.9%
COc1ccc(NC(=O)CCS(=O)(=O)c2cc(Br)cc3c2N(C(C)=O)CC3)c(OC)c1 -1.02%
CCOC(=O)Nc1ccc2c(c1)N(C(=O)CCN1CCOCC1)c1ccccc1S2 -26%
COc1ccc(-c2onc(C)c2C)cc1S(=O)(=O)NC1CCCCC1 -39.5%
Cc1cccc(N2CCN(C(=O)Cn3nc(C)c4sc5ccccc5c4c3=O)CC2C)c1 (configuration not stated) 8.13%
O=C(Nc1cccc(C(=O)OCc2cc(=O)n3nc(C4CC4)sc3n2)c1)c1ccc(F)cc1 -4.48%
CC(=O)c1ccc(S(=O)(=O)N2CCC(Oc3ccc(-n4cnnn4)cc3)CC2)cc1 -15.4%
O=C(Nc1cccc(Cl)c1)N1Cc2ccccc2Oc2ncccc21 -20.3%
CCc1ccc(NC(=O)CN2C(=O)C(=O)c3ccccc32)cc1 11.5%
COc1ccc(S(=O)(=O)Nc2ccc(O)c(Sc3nc4ccccc4s3)c2)cc1 -18.8%
CCCC(=O)NC1CC(=O)N(c2ccc3c(c2)OCCO3)C1 (configuration not stated) -4.5%
COc1ccccc1C1C(C(N)=O)=C(C)Nc2nc(SCc3ccccc3F)nn21 (configuration not stated) -10.7%
Cc1c(C(=O)N(C)C)sc2c1c(=O)n(-c1ccc(Cl)c(Cl)c1)c(=O)n2Cc1ccc(F)cc1 -9.2%
Cc1ccc(-n2nc(C)c3c(C)c(CCC(=O)NCc4cccc(Cl)c4)c(C)nc32)cc1C -27.1%
CCOCCCn1c(=N)c(S(=O)(=O)c2ccccc2)cc2c(=O)n3cc(C)ccc3nc21 3.3%
CC(=O)c1cccc(NC(=O)c2ccc3c(c2)CCN3S(=O)(=O)c2ccccc2)c1 -11.8%
CCn1cc(S(=O)(=O)c2ccccc2)c(=O)c2cc(F)c(N3CCCCCC3)cc21 -22.9%
O=C(CSc1c2c(nc3ccc(Cl)cc13)CCCC2)N1CCCCC1 -16.4%
CCOc1ccc(CCNC(=O)c2cc3cc4ccc(OC)cc4nc3s2)cc1OCC -8.7%
Cc1ccccc1OCC(=O)Nc1ccc(S(=O)(=O)Nc2ncccn2)cc1 10.1%
COc1ccc(C(=O)Oc2c(Sc3ccc(C)cc3)c(C)nn2C(C)(C)C)c(OC)c1 -52.2%
Nc1c2c(nc3c1CCC3)CCCC2 -5.41%
COCCNC(=O)C(=O)Nc1ccc2nc3n(c(=O)c2c1)CCCCC3 -1.11%
C=Cc1ccc(Cn2c(C(=O)O)c(CNCc3cc(OC)ccc3OC)c3ccc(C)cc32)cc1 -24.6%
COc1ccc(CCNC(=O)C(C)n2nc(C)c3sc4ccccc4c3c2=O)cc1OC (configuration not stated) -17.9%
CCOc1ccc(C2C(C(=O)Nc3ccc(C)cc3C)=C(C)Nc3c(C(=O)Nc4ccc(C)cc4)cnn32)cc1OC (configuration not stated) 1.06%
CCC12CN3CC(C)(CN(C1)C3c1c(C)[nH]c3ccccc13)C2=O (configuration not stated) 3.37%
O=C(O)c1ccc(Nc2ncc3c(n2)-c2ccc(Cl)cc2C(c2c(F)cccc2F)=NC3)cc1 -14.9%
COc1ccc(C2NC(=O)N(C)C3=C2C(=O)N(c2ccccc2)C3)cc1 (configuration not stated) -23.3%
COc1ccc(-c2nc3c(C#N)c[nH]n3c2NC2CCCCC2)cc1 44.4%
COC(=O)C1=C(c2ccccc2)c2ccccc2S(=O)(=O)N1CC(=O)Nc1cc(C)ccc1C -25%
Cc1ccc(CN2C(=O)C3(SCC(=O)N3c3ccc(C)c(C)c3)c3ccccc32)cc1 (configuration not stated) -24.7%
CCOC(=O)Cn1nc(N2CCN(c3ccc(F)cc3)CC2)ccc1=O -14.3%
CCOC(=O)c1cccc(NC(=O)CCc2c(C)nc3c4cccnc4nn3c2C)c1 -6.44%
Cc1cccc(N2CCN(c3c(CN4CCCC4)c(=O)oc4ccccc34)CC2)c1C -13.1%
Cc1c(C(=O)N2CCOCC2)oc2c1-c1nn(CC(=O)NCc3ccccc3)cc1CC2 -18.3%
CSc1ccc(Nc2nn(-c3ccc(OC(F)(F)F)cc3)nc2C(C)=O)cc1 -6.21%
Cn1c(=O)n(C)c2cc(CNCc3ccc(C(=O)O)cc3)ccc21 -0.659%
C[C@H](NC(=O)Cc1cc(F)cc(F)c1)C(=O)N[C@@H]1C(=O)N(C)c2ccccc2-c2ccccc21 -16%
CCOCCn1ccc2c(OCC(=O)Nc3cc(C(F)(F)F)ccc3Cl)cccc2c1=O -6.84%
Cc1ccc2c(c1)N(CC(=O)NCc1cccc(Cl)c1)C(=O)c1cccnc1O2 -5.97%
COc1ccccc1Cn1c(CNS(=O)(=O)c2c(C)cc(C)cc2C)nc2cccnc21 -27%
Cc1ccc(C)c(NC(=O)c2cc(S(=O)(=O)N3CCc4ccccc4C3)ccc2F)c1 8.51%
COc1ccccc1CNC(=O)c1cc2sccc2n1Cc1ccc(F)cc1 -12.1%
COc1ccc(Br)cc1CNC(=O)CCCn1c(=O)c2cccn2c2cccnc21 -16.6%
CCCS(=O)(=O)c1c(S(=O)(=O)CCC)c2cc(C(C)(C)C)ccn2c1C(=O)c1ccc(OC)c(OC)c1 -21.4%
COc1ccc(C2C=C(c3ccc(C)cc3)Nc3c(C(=O)Nc4ccccc4)cnn32)cc1 (configuration not stated) -91.3%
COc1ccc(-c2noc(-c3ccccc3OCC(=O)Nc3ccc(C(C)=O)cc3)n2)cc1 8.54%
O=C(Cn1ncc2c3ccccc3n(Cc3ccccc3)c2c1=O)N1CCCCCC1 -0.365%
CN=C(NC#N)NCCSCc1nc[nH]c1C -7.89%
CCc1cccc(NC(=O)Cn2c(C(=O)OC)cc3occc32)c1 9.39%
COc1ccccc1NC(=O)Cn1c(=O)n(-c2ccccc2Cl)c(=O)c2sc3ccccc3c21 -19.6%
COCCCn1c(SCc2ccccc2F)nc2c(sc3ccccc32)c1=O -20.9%
COC(=O)c1cc2sccc2n1Cc1ccc(F)cc1 -18.8%
CCCCC(=O)Nc1nnc(S(=O)(=O)N2CCCCCC2)s1 -5.74%
CCN(c1cccc(C)c1)C(CNS(=O)(=O)c1ccccc1)c1ccccc1 (configuration not stated) -32.4%
CCOc1ccc(NC(=O)c2cccc(N3CCCS3(=O)=O)c2)cc1 13%
Cc1ccc(C)c(N2CCN(C(=O)CN3C(=O)COc4ccc(S(=O)(=O)N5CCOCC5)cc43)CC2)c1 -12%
CCC(=O)N1c2ccccc2CC1C(=O)NCCCN1CCN(c2ccccc2)CC1 (configuration not stated) -4.16%
O=C(Nc1ccc(F)c(Cl)c1)C1CCCN(c2ncnc3onc(-c4ccc(F)cc4)c23)C1 (configuration not stated) -23.5%
COc1ccccc1Cc1nc2ccccc2nc1SCC(=O)NCc1ccc(F)cc1 2%
COc1ccccc1Nc1nc2c(S(=O)(=O)c3ccc(C(C)C)cc3)nnn2c2ccsc12 -3.14%
Cc1cccc(N2CCN(c3ncnc4onc(-c5ccc(F)cc5)c34)CC2C)c1 (configuration not stated) -35.3%
Cc1ccc2c(=O)cc(C(=O)Nc3ccc(S(=O)(=O)N4CCCCC4)cc3)oc2c1C -25.5%
Cc1cc(C)c2oc(-c3ccc(NC(=O)c4cc(Br)ccc4Cl)cc3)nc2c1 -20.7%
Cc1ccc(NC(=O)CCc2nc3cccnc3n2-c2ccccc2)cc1 -14.1%
Cc1coc2cc3oc(=O)c(CC(=O)NCCc4ccccc4F)c(C)c3cc12 -0.146%
O=C(Cn1c(=O)n(Cc2ccc(C(=O)NCc3ccccc3Cl)cc2)c(=O)c2ccccc21)Nc1ccc(F)cc1 -13.6%
Cc1c(-c2ccccc2)n(-c2ccc(Cl)cc2)c2nc3c(c(=O)n(C)c(=O)n3C)n12 1.57%
CSc1cccc(Nc2ncc3cc(-c4c(Cl)cccc4Cl)c(=O)n(C)c3n2)c1 -0.0428%
Cc1ccc(CNc2ccc(-c3nc(-c4cccnc4)no3)cc2[N+](=O)[O-])cc1 -7.34%
CCN(CC)S(=O)(=O)c1ccc2c(c1)N(CC(=O)Nc1ccc(F)cc1F)C(=O)C1CCCN21 (configuration not stated) -9.18%
COc1ccc(CNC(=O)CCCCCn2c(=O)[nH]c3ccccc3c2=O)cc1 6.37%
CCOC(=O)c1[nH]c2ccccc2c1NC(=O)c1ccc(OC)c(OC)c1 -2.7%
COc1cc(NC(=O)Cn2c(C)cc(C)c(C#N)c2=O)cc(OC)c1 -6.87%
CCn1cc(C(=O)NCCc2ccc(Cl)cc2)c(=O)c2cc(S(=O)(=O)N3CCOCC3)ccc21 -13%
Oc1cccc(-c2nc3ncccn3c2Nc2cccc(C(F)(F)F)c2)c1 -34.8%
NCCO 13.6% [at 116 µM, percent change from vehicle, -100% = no light]
CC(=O)N1CCCc2cc(S(=O)(=O)N(C)CC(=O)Nc3ccc(C(C)C)cc3)ccc21 -1.37%
OC1(c2ccc(Cl)cc2)CCNCC1 0.27%
CC(C)c1ccc(OCC(=O)Nc2ccc(S(=O)(=O)Nc3ncccn3)cc2)cc1 8.36%
Cn1cc(-c2cc3n(n2)CCC(=O)N3CCCC(=O)Nc2ccc(Cl)cc2)c2ccccc21 -16.2%
CC(C)OC(=O)c1c(NC(=O)c2cccc(C(F)(F)F)c2)sc2c1CCCC2 -6.74%
O=C1CC(c2ccccc2)Sc2ccccc2N1Cc1ccccc1F (configuration not stated) -19.7%
COc1ccc(NC(=O)Cn2ccn(-c3ccc(F)c(F)c3)c(=O)c2=O)cc1Cl -4.64%
CN(C)CCCSc1ccccc1NC(=O)/C=C/c1ccccc1 -7.14%
COc1cccc(CNC(=O)c2sc3nc[nH]c(=O)c3c2C)c1 -12.5%
COc1ccc(CNC(=O)CCC2N=C3c4ccccc4N=C(SCC(=O)NCCc4ccc(OC)c(OC)c4)N3C2=O)cc1 (configuration not stated) -5.55%
Cc1cccc(CNC(=O)c2cnc3c(-c4cccc(C)c4)c(C)nn3c2C)c1 -4.1%
CCCCC(=O)N1c2ccccc2C(C)(c2ccccc2)CC1(C)C (configuration not stated) -10.8%
COc1ccc(OC)c(CCNc2ncnc3onc(-c4ccc(Cl)cc4)c23)c1 -23.3%
CCc1ccc(S(=O)(=O)NCCc2cn3ccsc3n2)cc1 -15.7%
CC(=O)N1CCCc2cc(S(=O)(=O)N(C)CC(=O)Nc3cccc(Cl)c3C)ccc21 -23.5%
Cn1c(=O)c2cc(S(=O)(=O)NC(Cc3ccccc3)C(=O)Nc3ccc(F)cc3)ccc2n(C)c1=O (configuration not stated) -6.67%
CCOc1cc2ncc(C#N)c(Nc3ccc(F)c(Cl)c3)c2cc1NC(=O)C=CCN(C)C -29.7%

— PubChem BioAssay AID1508624 (National Center for Advancing Translational Sciences (NCATS), 2021)
